Source: publication PMC4336329 (PLoS ONE, 2015)
Out of some 310,000 compounds screened, about 2,200 (0.71%) showed an effect of 50% or more. The effect is printed as a negative number. This is one part of the list.

target: human ether-à-go-go-related gene (hERG) potassium channel (human, UniProt Q12809); test: primary screen, population patch clamp on CHO cells stably expressing hERG
Sequence (Q12809 whole entry, looked up): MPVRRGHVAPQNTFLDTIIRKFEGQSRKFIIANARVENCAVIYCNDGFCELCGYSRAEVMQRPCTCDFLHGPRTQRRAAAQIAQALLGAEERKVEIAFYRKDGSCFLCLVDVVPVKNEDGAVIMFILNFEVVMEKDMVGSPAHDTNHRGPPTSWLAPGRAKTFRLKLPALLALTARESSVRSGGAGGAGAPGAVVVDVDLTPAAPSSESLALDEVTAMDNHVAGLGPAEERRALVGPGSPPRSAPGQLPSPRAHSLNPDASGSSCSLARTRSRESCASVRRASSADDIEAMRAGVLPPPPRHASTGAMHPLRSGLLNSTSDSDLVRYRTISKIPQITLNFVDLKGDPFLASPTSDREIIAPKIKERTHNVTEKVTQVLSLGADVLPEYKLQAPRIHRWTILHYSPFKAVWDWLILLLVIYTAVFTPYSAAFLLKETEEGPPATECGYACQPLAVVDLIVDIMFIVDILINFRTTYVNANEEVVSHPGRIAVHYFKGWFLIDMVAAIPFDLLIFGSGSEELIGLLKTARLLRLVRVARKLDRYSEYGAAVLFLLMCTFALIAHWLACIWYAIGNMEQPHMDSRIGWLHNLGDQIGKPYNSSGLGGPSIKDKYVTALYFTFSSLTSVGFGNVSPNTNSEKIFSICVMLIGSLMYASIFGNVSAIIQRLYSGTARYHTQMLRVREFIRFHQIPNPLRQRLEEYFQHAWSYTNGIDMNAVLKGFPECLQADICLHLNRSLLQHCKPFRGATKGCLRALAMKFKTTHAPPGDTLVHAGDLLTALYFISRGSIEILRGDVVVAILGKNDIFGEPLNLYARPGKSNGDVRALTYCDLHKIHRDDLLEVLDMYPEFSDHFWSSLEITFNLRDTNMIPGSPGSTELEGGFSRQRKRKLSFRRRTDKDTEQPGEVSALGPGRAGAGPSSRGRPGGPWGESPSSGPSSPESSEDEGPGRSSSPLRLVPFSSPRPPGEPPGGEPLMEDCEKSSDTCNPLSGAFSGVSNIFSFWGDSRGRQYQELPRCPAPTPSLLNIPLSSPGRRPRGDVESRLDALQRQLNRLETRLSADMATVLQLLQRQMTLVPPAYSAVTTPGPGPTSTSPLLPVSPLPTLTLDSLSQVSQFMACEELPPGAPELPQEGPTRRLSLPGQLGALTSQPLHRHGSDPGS

SMILES | hERG current change (%, negative = inhibition) at 1uM
COc1ccc(NS(=O)(=O)c2ccc(Cl)c(N)c2)cc1Br | 9.47%
O=C1COc2ccc(N3C(=O)C=CC3=O)cc2N1 | 7.02%
Cc1ccc(C(=O)NC(C)c2ccc(F)cc2)cc1 (stereo not drawn) | 18.6%
COc1ccc(-n2nc(C(N)=O)nc2-c2ccccc2)cc1 | -3.8%
CCOC(=O)c1cnc(SCC(=O)NCc2ccco2)nc1N | 8.46%
O=C1CCCN1CCCNc1ccc2nnc(CCC(=O)N3CCN(c4ccc(F)cc4)CC3)n2n1 | 14%
Cc1cccc(OCC(=O)OC(C)C(=O)Nc2ccc(Cl)cn2)c1 (stereo not drawn) | 2.24%
C/C(=N\Nc1ccc([N+](=O)[O-])cc1[N+](=O)[O-])C(C)(C)C(C(=O)O)C(=O)O | 1.96%
O=C(Nc1cccc(Cl)c1Cl)C1CCCO1 (stereo not drawn) | 9.21%
Cc1ccc(S(=O)(=O)Nc2cccc(N(C)S(C)(=O)=O)c2)cc1[N+](=O)[O-] | 9.68%
Brc1cccc(OCCN2CCCCC2)c1.O=C(O)C(=O)O | -0.584%
Cc1ccc(C)c2c1cc(C)c1nnc(SCC(=O)c3cccs3)n12 | 5.13%
Cc1ccc2c(c1)C1C3CCC(C3)C1S(=O)N2 (stereo not drawn) | 13.3%
NC(=O)c1nsc(C(=O)N(c2cccc(F)c2)C(C(=O)NCC2CCCO2)c2ccc3ncccc3c2)c1N (stereo not drawn) | 3.23%
CC(Sc1nncn1C)C(=O)Nc1cc(C(F)(F)F)ccc1N1CCOCC1 (stereo not drawn) | -0.55%
Cc1cc(OCC(=O)NNC(=O)c2cccc(F)c2)ccc1Cl | 11.7%
Cc1ccc(-c2nc3sc(C#N)c(N)n3c(=O)c2C#N)cc1 | 11.8%
COC(=O)c1cc(S(=O)(=O)N2CCC(C)CC2)ccc1F | -12.9%
C=CCOc1ccc(/C=C/C(=O)OCC(=O)NCC2CCCCC2)cc1 | 4.57%
CCN(c1ccc(OC)cc1)S(=O)(=O)c1nnc(NC(=O)c2ccccc2Cl)s1 | 12.5%
Cc1ccc(NC(=O)CN2C(=O)CCS(=O)(=O)c3ccccc32)cc1Cl | 13.7%
Cc1ccccc1CN1CCC(N2CCC(C(=O)NCC3CCCO3)CC2)CC1 (stereo not drawn) | 8.01%

SMILES | hERG current change (%, negative = inhibition) at 1uM
CCOCCOC(=O)NCCCCCCNC(=O)OCCOCC | 13.3%
COC1=C/C(=C/c2c(N)n3c(nc2=O)sc2cc(S(C)(=O)=O)ccc23)C=CC1=O | 18.9%
CCOP(=O)(OCC)c1ccc(O)cc1 | 11.3%
CC(=O)c1ccc(NC(=O)C2C3C=CC(C3=C(c3ccccc3)c3ccccc3)C2C(=O)O)cc1 (stereo not drawn) | 12%
CCn1c(SCC(=O)c2ccc(NC(C)=O)c(OC)c2)nnc1-c1ccc(NS(C)(=O)=O)cc1 | 18.4%
c1ccc(CSc2nc3ncncc3[nH]2)cc1 | 7.34%
CC1CCCC(C)N1C(=O)COC(=O)c1cc(Br)ccc1Cl (stereo not drawn) | 17%
COc1ccccc1N1C(=O)c2ccccc2NC1c1ccncc1 (stereo not drawn) | -8.11%
CC1CCC(NC(=O)c2nn(C)c3c2CS(=O)(=O)c2ccccc2-3)CC1 (stereo not drawn) | 16.9%
COc1cccc(NC(=O)C2=COCCO2)c1 | 17.6%
Cl.N#C/C(=C/c1cc(Cl)c(O)c(Cl)c1)C(=O)N1CCCCC1 | 11.2%
CCOc1ccc2nc(C)cc(C(=O)O)c2c1 | 7.96%
O=C(CN(Cc1ccccc1)C(=O)c1csnn1)NCCc1ccccc1 | -2.12%
Nc1ccccc1Oc1c(F)c(F)c(Oc2ccccc2N)c(F)c1F | 22.6%
O=C(NCc1cccnc1)c1ccc(CS(=O)(=O)Cc2ccc(Cl)cc2)o1 | 3.03%
COc1ccc(NC(=O)c2ccc(Cl)c(S(=O)(=O)NCC3CCCO3)c2)c(OC)c1 (stereo not drawn) | 9.43%
O=C(Nc1nnc(S(=O)(=O)N2CCCCCC2)s1)c1ccccc1Cl | 0.0815%
CC1Cc2cc(S(=O)(=O)N3CCC(C(N)=O)CC3)ccc2N1C(=O)C1CC1 (stereo not drawn) | 15.5%
CC(=O)Nc1ccc(NC(=O)C(C)OC(=O)c2c(NC(C)=O)sc(C)c2C)cc1 (stereo not drawn) | 12.8%
CC(C)c1cc(CNC(=O)C2CCC(=O)N(CCc3ccc(Cl)cc3)C2)on1 (stereo not drawn) | -16.6%
O=C(c1ccc(Cl)c(F)c1F)N1CCOCC1 | 5.71%
O=C(/C=C/c1ccccc1)OCC(=O)N1CCCC1 | 9.83%

SMILES | hERG current change (%, negative = inhibition) at 1uM
CCC(=O)N1N=C(c2c(O)n(CCc3ccccc3)c(=O)[nH]c2=O)CC1c1ccc(OC)c(OC)c1 (stereo not drawn) | 24.2%
CCOC(=O)N1CCN(C(=O)c2ccc3c(c2)N=C(CC)c2cc(C)ccc2S3)CC1 | 15.5%
Cc1ccc(NC(=O)CN2CCOCC2)c(Br)c1 | 6.9%
COc1cc2ncnc(Nc3ccc4c(c3)OCO4)c2cc1OC | 12.1%
CCOc1cc(C2C3=C(CCCC3=O)OC3=C2C(=O)CCC3)cc([N+](=O)[O-])c1O | 10.3%
COc1ccc(N2CCN(C(=O)C(OC(C)=O)c3ccccc3)CC2)cc1 (stereo not drawn) | -7.6%
COc1ccc(-n2nccc2-c2nn(-c3cccc(OC)c3)c(=O)n(C)c2=O)cc1 | 14.9%
CCN(CC)c1ccc(/C=N/c2sc3c(c2C#N)C2CCN3CC2)c(O)c1 | 27%
COC(=O)c1ccc(CO/N=C/c2cccc([N+](=O)[O-])c2)cc1 | 11.2%
O=C(C1CCN(S(=O)(=O)c2ccc(Br)s2)CC1)N1CCCCC1 | 7.43%
COC(=O)c1ccc(-c2cc3onc(-c4ccccc4)c3c(=O)n2C)cc1 | 8.56%
Cc1ccc(/C=N/NC(=O)CNC(=O)c2cccs2)cc1 | 12.2%
CC(C)N(C(=O)Cn1cnc2c(cnn2-c2ccccc2Cl)c1=O)C(C)C | 12.8%
COc1cc(OC)cc(C(=O)N(CCCN2C(=O)c3cccc4cccc(c34)C2=O)c2cccc(OC)c2)c1 | 9.63%
CCOC(=O)c1ccc(COC(=O)CNC(=O)CNC(=O)Cc2ccccc2)cc1 | -40.4%
O=C(NCC1CCCO1)C(c1ccco1)N(Cc1ccc(F)cc1)C(=O)CN1C(=O)c2ccccc2S1(=O)=O (stereo not drawn) | 8.75%
O=C(CCn1c(=O)oc2ccccc21)Nc1ccc(N2CCOCC2)cc1 | 19.9%
COc1cc(/C=N/NC(=Nc2ccc(C)cc2)c2nc3ccccc3s2)ccc1O | -10.7%
CC1CCCCN1CCNC(=O)CN1C(=O)CSc2ccc(S(=O)(=O)N3CCCCC3)cc21 (stereo not drawn) | -4.31%
Cl.c1ccc(CN2CCNCC2)nc1 | 16.6%
COc1ccnc(CSC(N)=Nc2ccccc2C(F)(F)F)c1 | 5.22%
CC(=O)N(C(C)=O)c1ncc2c([nH]c3ccccc32)c1C#N | 15.6%

SMILES | hERG current change (%, negative = inhibition) at 1uM
Cc1ccc2c(c1)nnn2C1CCN(CC(=O)NCCc2ccccc2)CC1 | -8.03%
CCc1nnc(N/N=C/c2cc(C)c(C)cc2C)n1N | 10.9%
COc1ccc(C)cc1NC(=O)CCC(=O)Nc1nnc(C2CCCCC2)s1 | 21.5%
CSCC[C@H](N)C(=O)NCC1CCC(C(=O)N[C@@H](Cc2ccccc2)C(=O)O)CC1.Cl (stereo partly drawn) | 13.5%
O=C(Nc1nc2ccccc2s1)c1cccc(N2C(=O)CCC2=O)c1 | 9.87%
CC(=O)c1sc(NC(=O)CS(=O)(=O)c2ccccc2)nc1C | -9.05%
COc1cccc(C2CC(c3ccccc3C)n3nc(N)nc3N2)c1 (stereo not drawn) | 7.31%
COc1ccc(NC(=O)CC2C(=O)N(C)C(=S)N2CCc2ccc(F)cc2)cc1 (stereo not drawn) | 5.78%
COc1cc(N=c2ssnc2Cl)cc(OC)c1 | 3.92%
O=C1CCCN1CCCNc1ncnc2c1cnn2-c1ccc(Cl)cc1 | -1.84%
O=C(CSc1nc2ccccc2[nH]1)Nc1ccc(F)c(F)c1 | 0.944%
O=C(O)c1cc(S(=O)(=O)N(Cc2ccccc2)c2ccccc2Cl)ccc1Cl | 16.7%
Cc1cccc(-n2c(O)cnc2Nc2nc(C)cc(C)n2)c1 | 8.64%
CC(C)(c1ccccc1)c1ccc(OCCN)cc1.Cl | 11.7%
O=C(COC(=O)c1ccccc1Cc1ccccc1)NC1CCS(=O)(=O)C1 (stereo not drawn) | 7.09%
N#Cc1ccc(Oc2c(Cl)cncc2Cl)cc1 | 7.35%
CC(C)(O)C#Cc1ccc(C(=O)NCc2cccs2)s1 | 2.44%
CCc1nc2oc3ccccc3c(=O)c2c(=O)n1-c1ccc(C)cc1 | 11.9%
CC(C)NS(=O)(=O)c1ccc(NCCCn2ccnc2)c([N+](=O)[O-])c1 | 13.7%
CCOc1cc(C(=O)OCC(=O)c2cc(C)n(CC3CCCO3)c2C)ccc1OCC(=O)N1CCOCC1 (stereo not drawn) | 6.77%
CC(Oc1ccc(S(=O)(=O)N2CCCC2)cc1[N+](=O)[O-])C(=O)NC1(C#N)CCCCC1 (stereo not drawn) | 1.24%
